About 12,000 (3.5%) of roughly 340,000 compounds were called active. The shares of active, inactive and inconclusive entries below differ from those in the screen. Calls follow the shape of the dose curve; as a rule, active = well fitted inhibition curve with a large enough effect; inconclusive = small, poorly fitted or top-dose-only effect, or another doubt; inactive = no such curve, though single readings can be large or run the other way. Potencies of inconclusive entries are left out as doubtful fits.
test: qHTS Assay for Inhibitors of Hepatitis C Virus (HCV); conditions: Huh7.5.1 HCVcc-Cre (HCVcc is cell-culture hepatitis C virus) infection, luciferase reporter, 44 h; activity change, negative = inhibition: at 41.8 µM (top of the series) unless noted
Summary of the method: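 Seed cells (1,000/well) for 4 h; treat with compound and infect with HCVcc-Cre, moi about 0.5. Incubate 44 h, then detect luciferase activity.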
% is scaled to controls: 0 for no effect and ±100 for the full control effect; potency is read from the fitted curve at half-maximal effect; tags tell the direction and shape of the fitted curve.

Structure (SMILES) | Potency | activity change, negative = inhibition
Cc1cc(OCC(=O)NCC(c2cccs2)N2CCOCC2)ccc1C(C)C (configuration not stated) | inconclusive [inhibitor, partial curve] | –
COc1ccccc1N1CCN(C(c2cccs2)C(C)NC(=O)c2ccco2)CC1 (configuration not stated) | inconclusive [inhibitor, single point] | –
Cc1ccc(-n2c(SCC(=O)Nc3cccc(S(=O)(=O)NC4=NCCCCC4)c3)nc3ccccc3c2=O)cc1 | inconclusive [inhibitor, single point] | –
COc1ccc(-n2ncc3c(=O)n(CC(=O)Nc4ccc(S(=O)(=O)N5CCOCC5)cc4)cnc32)cc1 | inconclusive [inhibitor, single point] | –
O=C(CCS(=O)(=O)c1ccc(Cl)cc1)NCCN1C(=O)S/C(=C\c2ccccc2F)C1=O | inconclusive [inhibitor, full curve] | –
COc1ccc(-c2cn[nH]c2-c2ccc(O)cc2O)cc1 | – | inactive: -10.4%
CCN(CC)CCCN(Cc1cc2ccc(C)c(C)c2[nH]c1=O)C(=O)NC1CCCCC1 | active: 5.62 µM | –
Cc1ccccc1OCc1nc2ccccc2c(=O)n1/N=C/c1cn[nH]c1-c1ccccc1 | inconclusive [inhibitor, partial curve] | –
O=[N+]([O-])c1cc(C(F)(F)F)cc([N+](=O)[O-])c1NCCNC(=S)Nc1cccc(F)c1 | inconclusive [inhibitor, single point] | –
Cc1ccsc1CNS(=O)(=O)c1ccc(F)cc1 | inconclusive [inhibitor, single point] | –
CC(c1ccccc1)n1c(SCC(=O)Nc2ccccc2)n[nH]c1=O (configuration not stated) | inconclusive [inhibitor, partial curve] | –
CCN(CC)C(=O)CC(c1ccc2c(c1)OCO2)c1c(OC)cc(OC)c2c(-c3ccccc3)cc(=O)oc12 (configuration not stated) | inconclusive [inhibitor, single point] | –
CC(=O)Nc1sc(C)c(C)c1C(=O)OCC(=O)Nc1ccccc1 | inconclusive [inhibitor, full curve] | –
Cc1ccc(-c2ccc(=O)n(CCC(=O)N3CCN(c4cccc(C)c4)C(C)C3)n2)cc1 (configuration not stated) | inconclusive [inhibitor, single point] | –
CCOc1ccc(NC(=O)c2ccccc2OCC(=O)c2ccccc2)cc1 | inconclusive [inhibitor, single point] | –
Cc1ccccc1NC(=O)CSc1nnc(-c2ccco2)n1N | – | inactive: 10.8%
COCCNc1nnnc2c1sc1nc(N3CCOCC3)c3c(c12)CC(C)(C)OC3 | inconclusive [inhibitor, single point] | –
CC(C)CC(C(=O)O)N1C(=O)C2C3C=CC(C2C1=O)C1C(=O)N(C(CC(C)C)C(=O)O)C(=O)C31 (configuration not stated) | – | inactive: 14.4%
COc1ccc(-c2ccnc(SCC(=O)c3ccc(OC)c(OC)c3)n2)cc1 | inconclusive [inhibitor, partial curve] | –
CN(Cc1ccccc1)C(=O)COC(=O)c1cc(NS(=O)(=O)c2cccs2)ccc1O | active: 10 µM | –
Cc1ccc(NCc2n[nH]c(=S)n2Cc2ccccc2)cc1Cl | – | inactive: 0.044%

Structure (SMILES) | Potency | activity change, negative = inhibition
O=C(COc1ncnc2ccc(Br)cc12)NCc1ccc2c(c1)OCO2 | – | inactive: -23.8%
O=C(Nc1ccccc1Cc1ccccc1)c1ccccc1NS(=O)(=O)c1ccc(Cl)s1 | inconclusive [inhibitor, partial curve] | –
CC(/C=C(\C)Nc1ccccc1)=Nc1ccccc1 | – | inactive: 16.6%
COC(=O)CCC(=O)Nc1ccc(S(=O)(=O)N2CCc3ccccc32)cc1 | – | inactive: -5.68%
CC(C)CC(=O)NC(=S)Nc1ccc(N2CCOCC2)c(Cl)c1 | inconclusive [inhibitor, single point] | –
CCN(Cc1ccccc1)CC(O)COC(c1ccc(OC)cc1)c1ccc(OC)cc1 (configuration not stated) | inconclusive [inhibitor, single point] | –
Cc1ccc(SCC(=O)NC2CCS(=O)(=O)C2)cc1C (configuration not stated) | inconclusive [inhibitor, single point] | –
COCCCNC(=S)NCCCNc1nc2cc(C)cc(C)c2cc1C#N | inconclusive [inhibitor, partial curve] | –
C=CCOc1cccc(C(=O)/C=C2/C(=O)Nc3ccccc32)c1 | inconclusive [inhibitor, single point] | –
CCCOC(=O)c1cccc(NC(=O)C(C)(C)C)c1 | inconclusive [inhibitor, partial curve] | –
COc1ccc(CCn2c(-c3cc([N+](=O)[O-])cc([N+](=O)[O-])c3)nc3nc4ccccc4nc32)cc1OC | inconclusive [inhibitor, single point] | –
CCOC(=O)CC(NC(=O)c1ccco1)c1ccc(OC)cc1 (configuration not stated) | – | inactive: -9.67%
COc1ccc(Cn2cc3c(-c4ccc(F)cc4)nnc-3c3cc(OC)c(OC)cc32)cc1 | inconclusive [inhibitor, single point] | –
CC(=O)C1C(c2ccc(Cl)cc2)NC(=O)NC1(O)C(F)(F)F (configuration not stated) | inconclusive [inhibitor, single point] | –
COc1ccc(-c2cc(=O)[nH][nH]2)cc1OC | inconclusive [inhibitor, single point] | –
COC(=O)C1=C(c2ccccc2OCc2ccccc2)C[C@@H]2CC[C@H]1N2C(=O)NCc1cccc(C(F)(F)F)c1 | inconclusive [inhibitor, partial curve] | –
O=C(CSc1nnc(C2CC2)n1CC1CCCO1)Nc1ccccc1Cl (configuration not stated) | – | inactive: 21.8%
Cc1ccc2cc(C#N)c(N3CCCN(S(=O)(=O)c4ccc(F)cc4)CC3)nc2c1 | inconclusive [inhibitor, partial curve, poor fit] | –
C/C(=N/Oc1nc(C)cc(C)n1)c1ccccc1 | – | inactive: -11.3%
C=C1C(=O)O[C@@H]2C[C@@H](C)[C@@H]3C4OC4C(=O)[C@@]3(C)[C@@H](O)[C@H]12 (some centres not stated) | inconclusive [inhibitor, single point] | –
COc1cc(NC(=O)N2CCNC2=O)cc(C(=O)Nc2cccc(C(F)(F)F)c2)c1 | inconclusive [inhibitor, partial curve] | –

Source: PubChem BioAssay AID651820 (National Center for Advancing Translational Sciences (NCATS), 2012)
